{"source": "PubChem BioAssay AID1768", "about": "(National Center for Advancing Translational Sciences (NCATS), 2009)", "note": "Where “and” joins values, the source holds several entries; their conditions need not be identical. Identical values can stand only once. In all, about 270,000 compounds went through this assay and about 620 (0.23%) were called active. The shares of active, inactive and inconclusive entries below differ from those in the screen. Calls come from the whole dose curve; as a rule, active = well fitted inhibition curve with a large enough effect in the polarisation, with a control signal flat (not every such curve was filed as active); inconclusive = small, poorly fitted or top-dose-only effect, or effect the other way, or a change in a side signal; inactive = no such curve, though single readings can be large or run the other way; the % refers to the polarisation. Potencies of inconclusive entries are doubtful fits and often do not repeat. A note “side channel” means that the fit belongs to a control or component signal, not to the main read-out. Potency is the fitted concentration of half-maximal effect; tags give direction and shape of the fitted curve or compound fluorescence and quenching."}
{"molecular_target": "Menin (Homo sapiens) (UniProt O00255)", "sequence (O00255 whole entry, looked up)": "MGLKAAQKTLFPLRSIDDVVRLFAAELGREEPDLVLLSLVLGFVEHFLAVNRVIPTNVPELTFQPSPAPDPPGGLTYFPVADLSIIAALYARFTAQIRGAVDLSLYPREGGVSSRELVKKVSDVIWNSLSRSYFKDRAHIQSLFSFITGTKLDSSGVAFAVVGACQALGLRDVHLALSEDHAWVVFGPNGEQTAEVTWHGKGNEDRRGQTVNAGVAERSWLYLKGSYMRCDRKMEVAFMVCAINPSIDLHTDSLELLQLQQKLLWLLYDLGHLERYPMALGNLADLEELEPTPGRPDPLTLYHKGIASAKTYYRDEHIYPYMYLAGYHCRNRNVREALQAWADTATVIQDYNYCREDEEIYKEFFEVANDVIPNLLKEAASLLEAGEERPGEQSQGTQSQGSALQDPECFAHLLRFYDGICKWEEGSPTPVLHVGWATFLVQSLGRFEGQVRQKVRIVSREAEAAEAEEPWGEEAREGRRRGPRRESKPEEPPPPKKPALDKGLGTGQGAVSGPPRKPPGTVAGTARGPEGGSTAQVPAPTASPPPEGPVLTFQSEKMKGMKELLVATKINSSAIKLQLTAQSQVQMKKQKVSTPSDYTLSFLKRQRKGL", "assay": "qHTS Assay for Inhibitors Targeting the Menin-MLL Interaction in MLL Related Leukemias: Competition With Texas Red Labeled MLL-derived Mutant Peptide; for FP activity change, negative = inhibition: % of control where 0% means no effect", "conditions": "fluorescence polarization; FP activity change, negative = inhibition: at 61.6 µM (top of the series)"}
{"smiles": "O=C(OCC(=O)N1CCc2ccccc2C1)c1cccc([N+](=O)[O-])c1", "Potency": "inconclusive: 8.91 µM [inhibitor, single point]"}
{"smiles": "Nc1nc(=S)c2[nH]cnc2[nH]1", "FP activity change, negative = inhibition": "inactive: -4.3%"}
{"smiles": "O=C1CCCC2CCCCN12", "note": "(stereo not given)", "FP activity change, negative = inhibition": "inactive: 7.39% [at 188 µM]"}
{"smiles": "O=C(Nc1ccc([N+](=O)[O-])cc1)OCCc1ccccn1", "Potency": "inconclusive: 39.8 µM [fluorescent, single point]"}
{"smiles": "O=[N+]([O-])c1ccc(-c2nc(NCc3ccccc3)c3ccccc3n2)cc1", "Potency": "inconclusive: 2.82 µM [quencher, side channel, full curve]"}
{"smiles": "CCOC(=O)c1c(NC(=O)CN2CCCCC2)sc(CN(C)C)c1-c1ccccc1", "Potency": "inconclusive: 7.08 µM [fluorescent, side channel, partial curve]"}
{"smiles": "COc1ccc(OCC(=O)NNC(=S)NC(=O)c2ccc([N+](=O)[O-])cc2)cc1", "Potency": "inconclusive: 25.1 µM [quencher, side channel, single point]"}
{"smiles": "CCN(CC)c1cccc(OCC(=O)N(C)CCC#N)c1", "Potency": "inconclusive: 14.1 µM [fluorescent, side channel, partial curve]"}
{"smiles": "CCN(CC)c1ccc(SS(=O)(=O)O)cc1", "Potency": "inconclusive: 12.6 µM [quencher, side channel, partial curve] and inconclusive: 25.1 µM [quencher, side channel, single point]"}
{"smiles": "O=C1S/C(=C\\c2ccc(O)c([N+](=O)[O-])c2)C(=O)N1Cc1cccc([N+](=O)[O-])c1", "Potency": "inconclusive: 12.6 µM [quencher, side channel, partial curve]"}
{"smiles": "COc1cccc(C(=O)NN2c3ccccc3CCc3ccccc32)c1", "Potency": "inconclusive: 25.1 µM [inhibitor, partial curve]"}
{"smiles": "Cn1c(=S)[nH]c(=O)c2ncc(=O)[nH]c21", "Potency": "inconclusive: 14.1 µM [inhibitor, partial curve]"}
{"smiles": "Cc1ccc2nc(SCC(=O)Nc3ccc(F)c([N+](=O)[O-])c3)[nH]c2c1", "Potency": "inconclusive: 25.1 µM [quencher, side channel, partial curve]"}
{"smiles": "CCC(c1nnnn1CCc1ccccc1)N(Cc1ccco1)Cc1cc2cc(C)cc(C)c2[nH]c1=O", "note": "(stereo not given)", "Potency": "inconclusive: 39.8 µM [inhibitor, single point]"}
{"smiles": "CC(=O)N1CCN(c2ccc(NC(=O)c3ccc([N+](=O)[O-])o3)cc2Cl)CC1", "Potency": "inconclusive: 25.1 µM [quencher, side channel, partial curve, poor fit]"}
{"smiles": "CCOC(=O)C(NCc1ccccc1OC)(NC(=O)c1ccccc1)C(F)(F)F", "note": "(stereo not given)", "Potency": "inconclusive: 17.8 µM [inhibitor, partial curve]"}
{"smiles": "Cc1cccc(C)c1NC(=O)CSc1nc(COc2ccccc2)nc2ccccc12", "Potency": "inconclusive: 8.91 µM [inhibitor, single point]"}
{"smiles": "CSc1ccc(CN2CCC(C(=O)NCc3ccc(C)cc3)CC2)cc1", "FP activity change, negative = inhibition": "inactive: -23.1%"}
{"smiles": "C/C(=N\\Nc1nc2ccccc2s1)c1ccc(Br)s1", "Potency": "inconclusive: 8.91 µM [quencher, side channel, partial curve]"}
{"smiles": "O=C(CO)[C@@H](O)C(O)[C@@H](O)CO", "note": "(stereo not given in full)", "FP activity change, negative = inhibition": "inactive: 4.17%"}
{"smiles": "CN(C)CCCN(C(=O)c1ccco1)c1nc(-c2ccc(Cl)cc2)cs1", "Potency": "inconclusive: 14.1 µM [inhibitor, partial curve]"}
{"smiles": "CC(C)/C=C1\\CC/C(=C\\c2cccnc2)C1=O", "Potency": "inconclusive: 14.1 µM [fluorescent, side channel, partial curve]"}
{"smiles": "NS(=O)(=O)c1ccc(NC(=S)Nc2ccc(Br)c(Cl)c2)cc1", "Potency": "inconclusive: 39.8 µM [quencher, side channel, single point]"}
{"smiles": "O=C(N/N=C\\c1c(O)ccc2ccccc12)c1cncc(Br)c1", "Potency": "inconclusive: 14.1 µM [quencher, side channel, partial curve]"}
{"smiles": "CCOC(=O)c1sc(NC(=O)CSc2ncccn2)c(C#N)c1C", "Potency": "inconclusive: 25.1 µM [quencher, side channel, single point]"}
{"smiles": "CN1CCN(CCCN2c3ccccc3Sc3ccc(Cl)cc32)CC1", "Potency": "inconclusive: 22.4 µM [fluorescent, side channel, single point] and inconclusive: 11.2 µM [fluorescent, side channel, partial curve]"}
{"smiles": "O=C(CCc1nnc(CCCc2ccccc2)o1)NCCCC1CCCC1", "Potency": "inconclusive: 22.4 µM [inhibitor, single point]"}
{"smiles": "Cn1c(=S)[nH]c2sc3c(c2c1=O)CCC(C(C)(C)C)C3", "note": "(stereo not given)", "Potency": "inconclusive: 25.1 µM [quencher, side channel, single point]"}
{"smiles": "O=[N+]([O-])c1cccc(-c2ccc(/C=N/n3c(-c4ccccc4)n[nH]c3=S)o2)c1", "Potency": "inconclusive: 11.2 µM [quencher, partial curve]"}
{"smiles": "C=C1NC(=O)c2cc(CN(C)c3ccc(C(=O)N[C@@H](CCC(=O)O)C(=O)O)s3)ccc2N1", "FP activity change, negative = inhibition": "inactive: -2.55%"}
{"smiles": "O=C(OCC1OC(OC(=O)c2cc(O)c(O)c(OC(=O)c3cc(O)c(O)c(O)c3)c2)[C@@H](OC(=O)c2cc(O)c(O)c(OC(=O)c3cc(O)c(O)c(O)c3)c2)C(OC(=O)c2cc(O)c(O)c(OC(=O)c3cc(O)c(O)c(O)c3)c2)C1OC(=O)c1cc(O)c(O)c(OC(=O)c2cc(O)c(O)c(O)c2)c1)c1cc(O)c(O)c(OC(=O)c2cc(O)c(O)c(O)c2)c1", "note": "(stereo not given in full)", "Potency": "inconclusive: 1.12 µM [quencher, side channel, full curve]"}
{"smiles": "O=C(O)/C=C/c1nc(-c2ccccc2)n2ccccc12", "FP activity change, negative = inhibition": "inactive: 3.22%"}
{"smiles": "O=C(/C=C/c1ccc(Cl)cc1Cl)n1cccn1", "Potency": "inconclusive: 14.1 µM [inhibitor, partial curve]"}
{"smiles": "COc1ccc(N(C(=O)c2ccco2)S(=O)(=O)c2cccs2)cc1", "FP activity change, negative = inhibition": "inactive: 2.96%"}
{"smiles": "COc1ccc(NS(=O)(=O)c2ccc(O)c(NC(=O)c3ccc(S(=O)(=O)N4CCCCCC4)cc3)c2)cc1", "Potency": "inconclusive: 2.82 µM [quencher, side channel, full curve]"}
{"smiles": "CCCCN(CCCC)C(=S)N/N=C/c1c(C)[nH]n(-c2ccccc2)c1=O", "Potency": "inconclusive: 25.1 µM [quencher, side channel, partial curve]"}
{"smiles": "O=C(OCC(=O)N1CCOCC1)c1ccccc1Cc1ccccc1", "Potency": "inconclusive: 39.8 µM [inhibitor, single point]"}
{"smiles": "Cc1cccc([C@@H]2[C@@H]3C(=O)N(Cc4ccccc4)C(=O)[C@@H]3[C@]3(CC(C)C)C(=O)N(c4cccc(Cl)c4)C(=O)N23)c1", "FP activity change, negative = inhibition": "inactive: -6.05%"}
{"smiles": "COc1cccc(-c2nn(C)c3sc(C(=O)NCCCN(C)Cc4ccccc4)cc23)c1", "Potency": "inconclusive: 39.8 µM [inhibitor, single point]"}
{"smiles": "COC(=O)C1CSC(C)(C)C(=O)N1", "note": "(stereo not given)", "FP activity change, negative = inhibition": "inactive: 15.8%"}
{"smiles": "COc1ccc(Cl)cc1NC(=O)c1noc2c1CCCC2", "Potency": "inconclusive: 39.8 µM [inhibitor, single point]"}
{"smiles": "O=C(/C=C/c1ccc(O)c(O)c1)OCCc1ccccc1", "Potency": "inconclusive: 15.8 µM [quencher, side channel, partial curve] and inconclusive: 17.8 µM [quencher, side channel, single point] and inconclusive: 25.1 µM [quencher, side channel, partial curve]"}
{"smiles": "COc1cccc(Cn2c(=O)c(-c3cccs3)nc3cnc(Nc4ccccc4)nc32)c1", "Potency": "inconclusive: 2 µM [quencher, side channel, full curve]"}
{"smiles": "Oc1ccc(-c2nccc(-c3ccc(Cl)cc3)n2)cc1", "Potency": "inconclusive: 25.1 µM [quencher, side channel, single point]"}
{"smiles": "Cc1c(C)c2ccc(OC(C)C(=O)N3CC[C@@]4(O)CCCC[C@H]4C3)c(C)c2oc1=O", "note": "(stereo not given in full)", "Potency": "inconclusive: 11.2 µM [fluorescent, side channel, partial curve]"}
{"smiles": "COc1ccc(OC)c(CN2CCN(C(=O)c3cc4ccccc4cc3O)CC2)c1", "Potency": "inconclusive: 7.08 µM [fluorescent, side channel, full curve, poor fit]"}
{"smiles": "CCN(CC)c1ccc(C2Nc3cccc4cccc(c34)N2)cc1", "Potency": "inconclusive: 14.1 µM [quencher, side channel, partial curve]"}
{"smiles": "O=C(NNc1cccc(Cl)n1)c1c(F)cccc1F", "FP activity change, negative = inhibition": "inactive: -12.7%"}
{"smiles": "Cn1c2ccccc2c(=O)c2cc(C#Cc3ccc(N)cc3)ccc21", "Potency": "inconclusive: 14.1 µM [quencher, side channel, partial curve]"}
{"smiles": "COc1cc(/C=N/N2C(C)CCCC2C)cc(OC)c1O", "note": "(stereo not given)", "Potency": "inconclusive: 0.631 µM [inhibitor, full curve, poor fit]"}
{"smiles": "COc1ccc(-n2c(=O)c3ccccc3n(CC(=O)NC3CCCC3)c2=O)cc1", "Potency": "inconclusive: 7.08 µM [inhibitor, single point]"}
{"smiles": "CCOc1cc(N2CCOCC2)c(OCC)cc1NC(=O)c1ccccc1C", "Potency": "inconclusive: 11.2 µM [inhibitor, partial curve]"}
{"smiles": "COc1cc2c(C(=O)Nc3ccc4c(c3)OCO4)cn(CC(C)C)c(=O)c2cc1OC", "Potency": "inconclusive: 5.62 µM [fluorescent, side channel, partial curve]"}
{"smiles": "Cc1cccc(OCCCCc2c(C)n[nH]c2C)c1C", "Potency": "inconclusive: 10 µM [fluorescent, side channel, partial curve]"}
{"smiles": "Cc1ccc(CN2CCN(Cc3nc(C(C)C)cs3)CC2CCO)cc1", "note": "(stereo not given)", "Potency": "inconclusive: 8.91 µM [fluorescent, side channel, partial curve]"}
